# From the supplement of paper PMC12217912
# Some of the results follow. The full chains were built here from the parent and the listed change. Inactive controls read about 0.05.
# B1: TEV protease; numbered along this chain (parent)
# chain: MGESLFKGPRDYNPISSSICHLTNESDGHTTSLYGIGFGPFIITNKHLFRRNNGTLVVQSLHGVFKVKDTTTLQQHLVDGRDMIIIRMPKDFPPFPQKLKFREPQREERICLVTTNFQTKSMSSMVSDTSCTFPSGDGIFWKHWIQTKDGQCGSPLVSTRDGFIVGIHSASNFTNTNNYFTSVPKNFMELLTNQEAQQWVSGWRLNADSVLWGGHKVFMVKPEEPFQPVKEATQL
# Variants of: B1
# Assay: raw area under fraction-flipped curve 0-4 h after induction (AUC4h, not background-subtracted), DNA-recorder readout of cleavage of the substrate (dimensionless); higher = more cleavage of the substrate by the protease variant
# Settings: temperature: 34 °C; time window: 0-4 h after rhamnose induction
# 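Further: Bxb1 expression induced with 0.2% (w/v) L-rhamnose at OD600 near 0.5, cultures sampled hourly, flipped fraction per protease–substrate barcode pair counted by paired-end Illumina sequencing.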
Variant,area with substrate ENLYFES,area with substrate ENLYFFS,area with substrate ENLYFIS,area with substrate ENLYFNS,area with substrate ENLYFPS,area with substrate ENLYFKS,area with substrate ENLYFMS,area with substrate ENLYFRS,area with substrate ENLYFSS,area with substrate ENLYFWS
L235Y,0.0291,0.0598,0.0603,0.0734,0.0646,,,,,
H76G,,0.0747,0.0576,,,0.077,0.0669,0.0595,,
N116T,,0.0491,,,0.0572,,,,0.0625,
M125W,,0.0503,0.0545,,,,,,,0.0602
T132N,,0.0592,0.0638,,,0.0252,,0.0544,,
W141N,,0.0427,0.0544,0.0548,,,,,0.0444,
T147S,,0.0787,0.0605,0.0592,,,,0.0556,,0.0571
G153Q,,0.082,,,,,,0.0438,,
G153S,,0.0515,0.0442,,,,,0.041,,
L156Y,,0.0502,0.0553,,0.0637,,0.0554,0.0512,0.058,0.0616
T159K,,0.0659,,,0.0572,0.0342,0.065,,,0.0431
V165M,,0.0608,,,,,0.0632,,,
A170F,,0.0454,,0.0643,,,,,,
A170K,,0.0746,,,0.0603,,,,,0.0443
A170S,,0.0477,0.0567,,,,,,,0.0558
N172H,,0.0858,0.0726,,,,0.058,0.113,,
N172L,,0.0678,,,,,,,,
T174E,,0.065,0.0506,,,,,,,
T174F,,0.0443,0.0439,,0.0608,,0.0487,0.0713,,0.0626
N178Q,,0.0651,0.0485,,0.0641,,0.091,0.0623,,0.0518
F180S,,0.0541,0.0525,0.0377,,,,,,
N193C,,0.0684,,,,,,0.0583,,
Q198G,,0.0564,,0.05,0.0641,0.0813,0.0575,0.0268,,0.0763
Q198P,,0.0699,,,,,,,0.0635,0.0579
H215S,,0.0693,0.0704,,,,,,,
V229R,,0.067,,0.04,,,0.0786,0.0508,0.0484,

Variant,area with substrate ENLYFES,area with substrate ENLYFFS,area with substrate ENLYFIS,area with substrate ENLYFNS,area with substrate ENLYFPS,area with substrate ENLYFKS,area with substrate ENLYFMS,area with substrate ENLYFRS,area with substrate ENLYFSS,area with substrate ENLYFWS
L235F,,0.114,,,0.0518,0.0535,0.0698,,,
F6N,,,0.0597,,0.0533,0.0577,,0.0468,,
Y34H,,,0.0741,0.0668,,0.0623,0.0676,0.0704,0.0751,0.0539
R51S,,,0.0481,0.069,0.0548,,0.0711,,,0.0855
Q74P,,,,,,,,,,0.0633
C131P,,,,,0.0494,,0.0729,,,
S154N,,,,0.0617,,0.0631,,,,
G162V,,,,,0.0606,0.0487,,,0.0554,
A170R,,,,0.0512,,,,,,0.0503
N172W,,,,0.0759,,,,,,
L211I,,,,,0.053,0.0498,,,,0.0619
G35D,,,0.0424,,,,0.0338,0.0367,,0.0345
K90M,,,,,0.049,,0.0785,0.0338,0.0523,
T119W,,,,0.0703,,,,0.0574,0.0419,
N178Y,,,0.0453,0.0797,0.058,,0.0815,,,0.0508
Q97C,,,0.0607,,,,,,,
Q97N,,,0.0568,,,,0.0711,,,
L99W,,,0.0531,,,,,,,0.0298
T119L,,,0.0607,,,,,0.0475,,
T129H,,,0.0436,,0.0648,,0.0611,0.0628,,
G162N,,,0.0712,,,,,,,
F163D,,,0.0674,,0.053,,0.0772,,,
S169Y,,,0.0681,,,,,,,0.0611
A170I,,,0.0558,,,,,,,
N178M,,,0.0477,,0.0376,,,,,0.0435
N186R,,,0.0789,,,0.0668,,,,

Variant,area with substrate ENLYFES,area with substrate ENLYFFS,area with substrate ENLYFIS,area with substrate ENLYFNS,area with substrate ENLYFPS,area with substrate ENLYFKS,area with substrate ENLYFMS,area with substrate ENLYFRS,area with substrate ENLYFSS,area with substrate ENLYFWS
E189Y,,,0.0668,,,,,,,
E195H,,,0.044,,,0.0653,0.071,,0.0623,0.0412
L211D,,,0.0523,,,,,,,
F38E,,,,,,0.0404,,,,
F65V,,,,,,0.0517,,0.0631,,
V78I,,,,0.0726,,0.0505,,0.0656,,0.047
D91E,,,,,,0.0697,,,,
T132K,,,,,0.061,0.0642,0.0537,0.0549,,
S158E,,,,0.062,,,,,,
N177Q,,,,,,,,0.058,,
W199Q,,,,,,,0.0853,0.0655,,0.0413
V58D,,,,0.0356,,,0.0366,,,0.0513
L99H,,,,,,,0.0632,,,
F101S,,,,,0.0555,,0.0583,,,
C131Q,,,,,,,0.0618,,,
G35I,,,,0.0479,,,,,,
T119S,,,,0.061,0.074,,,,,
C131E,,,,0.0642,,,,,,
F163M,,,,0.0635,,,,,,
Q97R,,,,,0.0545,,,,,
Q97Y,,,,,0.0487,,,,,
N116W,,,,,0.0598,,,0.0622,,
N193M,,,,,0.0524,,,,,
L99K,,,,,,,,0.0517,,
S171I,,,,,,,,0.0588,0.0564,
N186H,,,,,,,,,,0.0524

# Same assay, conditions: temperature: 34 °C; time window: 0-4 h after rhamnose induction
Variant,area with substrate ENLYFYS,area with substrate ENLYFHS,area with substrate ENLYFTS,area with substrate ENLYFGS,area with substrate ENLYFLS,area with substrate ENLYFVS
M125W,0.049,,,,,
T132N,0.0542,0.0486,0.0453,,,
W141N,,0.066,0.0414,,,
T147S,0.0586,,,,,
L156Y,0.045,,0.0586,0.0627,0.0589,
T159K,0.0471,0.0601,0.0644,0.0635,0.0572,
A170K,,0.0418,,,0.062,
A170S,,,0.0507,,,
N172H,,,,,0.0483,0.0573
N172L,,,,,,0.0551
T174E,0.05,,0.0577,,0.0609,
T174F,0.0606,,0.058,,,
N178Q,0.04,,,,,
N193C,0.0627,,,,,
Q198G,0.0266,,0.0669,0.0502,,0.0726
Q198P,,,0.055,,0.0551,0.0555
H215S,0.0573,,,,,
V229R,,0.0374,,0.0613,,
F6N,0.074,0.0655,0.0646,0.0874,,
Y34H,,,,0.0561,,
R51S,,,,0.0895,0.0687,
Q74P,0.0566,,0.0555,0.0619,,
C131P,,,,0.0625,,0.068
S154N,,,,0.1,,
G162V,,,,0.0696,,
A170R,,,0.0554,0.0367,,
N172W,,,,0.0405,,
N206L,,,,0.0605,,

Variant,area with substrate ENLYFYS,area with substrate ENLYFHS,area with substrate ENLYFTS,area with substrate ENLYFGS,area with substrate ENLYFLS,area with substrate ENLYFVS
L211I,,0.0493,,0.0728,,0.0463
G35D,,0.0741,0.0331,,,
K90M,,0.0477,,,,
T119W,,0.0434,,,,
N178Y,,0.0722,,,,
L99W,,,0.0429,,,
T119L,0.0521,,,,,
G162N,,,0.0534,,,
S169Y,,,,,0.0594,
N178M,,,,,0.0563,
N186R,0.0675,,,,,
E189Y,0.0528,,,,,0.0487
E195H,0.0588,,0.0673,,,
F38E,,,0.0535,,,
F65V,0.0597,,,,0.0632,
V78I,,,0.0571,,,
T132K,,,,,0.0527,
S158E,0.0476,,,,0.0613,0.0321
N177Q,,,,,0.0506,
W199Q,,,,,0.0525,
V58D,,,0.0639,,,
G35I,,,,,,0.0542
T119S,0.0545,,,,,
F163M,,,0.053,,,
N116W,0.0484,,0.057,,,
V210E,0.0466,,,,,0.0572
G2S,0.0579,,,,,
